# Measured values from PubChem BioAssay AID651820 (National Center for Advancing Translational Sciences (NCATS), 2012).
# Where “and” joins values, the source holds several entries; their conditions need not be identical. Identical values can stand only once. The whole screen tested about 340,000 compounds, of which about 12,000 (3.5%) were called active. The shares of active, inactive and inconclusive entries below differ from those in the screen. Calls come from the whole dose curve; as a rule, active = well fitted inhibition curve with a large enough effect; inconclusive = small, poorly fitted or top-dose-only effect, or another doubt; inactive = no such curve, though single readings can be large or run the other way. Where the call is inconclusive, the potency comes from a doubtful curve fit.
# Assay: qHTS Assay for Inhibitors of Hepatitis C Virus (HCV)
# Details: Huh7.5.1 HCVcc-Cre (HCVcc is cell-culture hepatitis C virus) infection, luciferase reporter, 44 h; series mostly up to 41.8 µM
# Summary of the method: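 1,000 cells/well; 4 h culture; + compound; + HCVcc-Cre (~0.5 moi); 44 h; luciferase substrate, RT 15 min; read 15 sec.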
# Potency is the fitted concentration of half-maximal effect; tags give direction and shape of the fitted curve.
row,SMILES,Potency
1,NS(=O)(=O)c1cc(C(=O)OCC(=O)Nc2ccccc2[N+](=O)[O-])ccc1Cl,inactive
2,O=C(N=C1SC2CS(=O)(=O)CC2N1c1ccc(Cl)cc1Cl)C1CC1 (configuration not stated),inactive
3,COc1ccc(-c2nc(NC(C)=O)sc2-c2ccc(OC)cc2)cc1,"inconclusive: 31.6 µM [inhibitor, single point]"
4,COc1ccccc1N1CCN(C(=O)CSc2nc3ccccc3[nH]2)CC1,"inconclusive: 2.82 µM [inhibitor, full curve]"
5,CCCn1c(CN(Cc2ccccc2)Cc2ccccc2)nc2c1c(=O)n(C)c(=O)n2C,active: 7.94 µM
6,N/C(=N/OCC(=O)Nc1cccc2ccccc12)c1nonc1N,inactive
7,COc1ccc(CN2CCC(C(=O)Nc3ccc(Oc4cccnc4)cc3)CC2)c(C)c1C,"inconclusive: 0.891 µM [inhibitor, full curve]"
8,CCOC(=O)c1c(C)oc(NC(=O)COc2ccc(Cl)cc2C)c1C#N,inactive
9,Cc1ccc(NC(=S)NCc2ccc3c(c2)cc(C)n3C)c(C)c1,"inconclusive: 31.6 µM [inhibitor, single point]"
10,CCC1CN(C(=O)N2CCC(C(=O)NCc3ccccc3OC)CC2)c2ccccc2O1 (configuration not stated),active: 15.8 µM
11,O=[N+]([O-])c1ccc(/C=N/Nc2ncc(Br)cn2)cc1,inactive
12,CCCCN(CC(=O)NCCOC)C(=O)Cn1nnc2ccccc21,inactive
13,CCn1c(SCC(=O)Nc2sc(C)c(C)c2C#N)nnc1C(C)C,"inconclusive: 31.6 µM [inhibitor, single point]"
14,N#Cc1nc(COc2ccccc2)oc1NCCN1CCOCC1,"inconclusive: 5.62 µM [inhibitor, single point]"
15,CC1Cc2ccccc2N1C(=O)C1CCCN(S(=O)(=O)c2cccc3nsnc23)C1 (configuration not stated),"inconclusive: 11.2 µM [inhibitor, partial curve]"
16,Cc1csc(NC(=O)C(C)Oc2ccc(Cl)cc2C)n1 (configuration not stated),"inconclusive: 31.6 µM [inhibitor, single point]"
17,CC(=O)Nc1ccc(SCC(=O)c2cc(C)n(-c3ccccc3F)c2C)cc1,"inconclusive: 12.6 µM [inhibitor, partial curve, poor fit]"
18,Cc1cc(NC(=O)c2cc(C)on2)n(-c2ccccc2)n1,inactive
19,N=c1c(C(=O)NCC2CCCO2)cc2c(=O)n3ccccc3nc2n1Cc1ccccc1 (configuration not stated),active: 7.08 µM
20,CCOc1ccc(NS(=O)(=O)c2ccc(C(=O)NCCCN3CCCC3=O)cc2)cc1,"inconclusive: 11.2 µM [inhibitor, partial curve]"
21,Cn1c(=O)c2c(nc(SCC(=O)N3CCc4ccccc4C3)n2C)n(C)c1=O,inactive
22,COc1ccc(S(=O)(=O)N2CCCCC2)cc1NC(=O)CN(Cc1ccco1)Cc1ccco1,active: 10 µM
23,COc1ccc2cc(Br)ccc2c1CC(=O)NC1CC(C)(C)NC(C)(C)C1,active: 11.2 µM
24,COc1ccc2nc(NC(=O)CSc3ccccc3)sc2c1,"inconclusive: 12.6 µM [inhibitor, partial curve]"

row,SMILES,Potency
1,CC1CCC2(CC1)C(Nc1cccc(Cl)c1)=NC(=S)N2CC#N (configuration not stated),"inconclusive: 22.4 µM [inhibitor, single point]"
2,Cc1cc(NC2CCCCC2)nc(-c2ccccc2O)n1,"inconclusive: 0.355 µM [inhibitor, full curve, poor fit]"
3,CCc1ccc(OCc2ccc(C(=O)NCc3ccccn3)o2)cc1,inactive
4,CCOC(=O)c1cc2c(C)n(-c3ccc(C)cc3)c(C)c2ccc1=O,active: 11.2 µM
5,O=C(O)c1cc(-c2ccc(/C=C3\NC(=O)N(c4ccccc4)C3=O)o2)ccc1Cl,inactive
6,CCOC(=O)c1c(NC(=O)CSc2cccc[n+]2[O-])sc(C(=O)Nc2ccccc2)c1C,"inconclusive: 8.91 µM [inhibitor, partial curve]"
7,COCCNC(=O)c1cc(-c2cccnc2)nc2ccc(Br)cc12,inactive
8,CCN(Cc1nc2ccccc2n1C)c1ccccc1,"inconclusive: 31.6 µM [inhibitor, single point]"
9,CCCCN(CC)CCNC(=O)c1cc2c(=O)n(C)c3ccccc3c2n1C,"inconclusive: 31.6 µM [inhibitor, single point]"
10,CCc1nnc(NC(=O)CCC(=O)N2CCN(Cc3ccc(OC)c(F)c3)CC2)s1,"inconclusive: 12.6 µM [inhibitor, single point]"
11,O=C(C(Br)=Cc1ccccc1)c1ccccc1,"inconclusive: 11.2 µM [inhibitor, single point]"
12,CCOC(=O)c1cnc(SCC#N)nc1N,"inconclusive: 31.6 µM [inhibitor, single point]"
13,CC(C)(C)NC(=S)N/N=C/c1cc(Br)c(O)c(Br)c1,inactive
14,CC(NC(=O)COC(=O)c1cn(-c2ccccc2)nc1-c1cccs1)c1ccccc1 (configuration not stated),inactive
15,CCCCN(C)CCNC(=O)c1c[nH]c2ccc(S(=O)(=O)N(CC)CC)cc2c1=O,inactive
16,COc1ccc(C)cc1N(C(=O)Cn1nnc(-c2ccc(C)o2)n1)C(C(=O)NC1CCCC1)c1ccncc1 (configuration not stated),"inconclusive: 10 µM [inhibitor, partial curve]"
17,O=[N+]([O-])c1cccc(NC(=S)N2CCN(c3ccccn3)CC2)c1,"inconclusive: 3.16 µM [inhibitor, single point]"
18,COc1ccc(S(=O)(=O)N2CCc3cc4c(cc3C2C)OCCCO4)cc1 (configuration not stated),"inconclusive: 31.6 µM [inhibitor, single point]"
19,CCC(C)c1ccc(NC(=S)N2CCN(c3ccccn3)CC2)cc1 (configuration not stated),"inconclusive: 31.6 µM [inhibitor, single point]"
20,CCn1cc(C(=O)N[C@@H](CC(C)C)C(=O)NCCCn2ccnc2)c(=O)c2cc3c(cc21)OCO3,inactive
21,Cc1nnc(NC(=O)CCC(=O)N2CCN(CCOc3cccc4ccccc34)CC2)s1,"inconclusive: 31.6 µM [inhibitor, single point]"
22,CCOC(=O)c1ccc(NC(=O)COc2ccc(-n3cnnn3)cc2)cc1,"inconclusive: 3.16 µM [inhibitor, single point]"
23,O=C1CC(=C2c3ccccc3-c3ccccc32)C(=O)N1CCN1CCN(c2ccccc2)CC1,"inconclusive: 10 µM [inhibitor, partial curve]"
24,COc1cc2cc(CN(CCc3cccc(C)c3)C(=S)NCCCN3CCOCC3)c(=O)[nH]c2cc1OC,"inconclusive: 12.6 µM [inhibitor, single point]"

row,SMILES,Potency
1,COc1ccc(NC(=O)c2cnc(NS(=O)(=O)c3ccccc3)nc2)cc1,inactive
2,CC[n+]1c(/C=C/N(C)c2ccccc2)oc2ccc(F)cc21,"inconclusive: 7.08 µM [inhibitor, partial curve]"
3,O=C(/C=C\Nc1ccc2c(c1)OCO2)c1ccc2c(c1)OCO2,"inconclusive: 0.501 µM [inhibitor, partial curve, poor fit]"
4,COc1ccc(Cc2nc(-c3cccc(C)c3)no2)cc1,inactive
5,Cc1nc2ccc(NS(=O)(=O)c3c(C)c(C)cc(C)c3C)cc2s1,active: 15.8 µM
6,CC(C)C(=O)NC(=S)Nc1c(Cl)ccc2nsnc12,inactive
7,CC(C)C(c1nnnn1Cc1ccccc1)N(Cc1ccco1)Cc1cccs1 (configuration not stated),"inconclusive: 6.31 µM [inhibitor, partial curve]"
8,O=C(Nc1cccc(Cl)c1)N1CCN(Cc2ccccc2)CC1,inactive
9,COC(=O)c1sccc1NC(=O)c1c(Cl)cccc1Cl,inactive
10,COc1ccc(C(=O)Nc2nc3cc4c(cc3s2)OCCO4)c(OC)c1,"inconclusive: 22.4 µM [inhibitor, single point]"
11,O=C(CNC(=O)c1ccc(F)cc1)N/N=C/c1cc(Br)ccc1OC(=O)/C=C/c1ccco1,active: 10 µM
12,COc1ccc2nc(SCc3cccc(C)c3)nc(C)c2c1,"inconclusive: 10 µM [inhibitor, partial curve]"
13,O=C(CNCc1cccs1)Nc1ccc(S(=O)(=O)N2CCCCC2)cc1,inactive
14,CC(Oc1ccc2c3c(c(=O)oc2c1)CCCC3)C(=O)NC1CC(C)(C)NC(C)(C)C1 (configuration not stated),"inconclusive: 14.1 µM [inhibitor, single point]"
15,CN(C)/C=N/c1ncc(-c2ncc(C(F)(F)F)cc2Cl)cn1,inactive
16,CCOC(=O)c1cc(NC(=O)c2cccs2)ccc1N1CCOCC1,"inconclusive: 2.51 µM [inhibitor, full curve]"
17,Cc1ccc2c(c1)NC(=O)C(CC(=O)NCCN(C)C)O2 (configuration not stated),inactive
18,CC(C)C[C@H](NC(=O)c1nc[nH]c1C(=O)NC(c1ccccc1)c1ccccc1)C(=O)OCc1ccccc1,"inconclusive: 11.2 µM [inhibitor, partial curve]"
19,COc1ccc(OC)c(CN2CCN(C(=O)c3cccc(S(=O)(=O)Nc4ccc(C)cc4)c3)CC2)c1,active: 10 µM
20,CCOC(=O)C1CCN(S(=O)(=O)c2cccc(-c3cn4cccc(C)c4n3)c2)CC1,"inconclusive: 12.6 µM [inhibitor, single point]"
21,COc1cccc(C2c3c(-c4cc(Cl)c(C)cc4O)n[nH]c3C(=O)N2Cc2cccnc2)c1 (configuration not stated),"inconclusive: 0.501 µM [inhibitor, full curve, poor fit]"
22,COc1cc(C(=O)Nc2cc3c(cc2N2CCCCC2)n(C)c(=O)n3C)cc(OC)c1OC,"inconclusive: 20 µM [inhibitor, partial curve, poor fit]"
23,Cc1cccc(Nc2nc(-c3ccccn3)cs2)n1,active: 7.08 µM
24,Cc1cc(OCC(O)CN2CCN(C)CC2)ccc1C(C)C (configuration not stated),"inconclusive: 17.8 µM [inhibitor, single point] and inconclusive: 22.4 µM [inhibitor, single point]"
